Among the data in the RNAGym collection of RNA variant scans (doi:10.7554/elife.90254) are self-cleavage values, retold here.

The source gives no read counts; variants with many changes may rest on few reads.

The chains are these.
B1: LINE1-mini (parent)
chain: GGCAGAGCUCAACACAGCGUGGCAAAGUGGCUGUGGCUAGACUGCC

The variants in this series derive from B1. In words: self-cleavage, relative activity (ratio to wild type); higher = more cleavage; in vitro, sequencing; the parent is a self-cleaving ribozyme.
For A12G C18U G21A, the self-cleavage is 0.01. As to G2A A4U C8A C18A G27U U32G, the self-cleavage was 0.21. Next, A26G G36U C42U: 0.1.

As to A6C U9C C13A G30U C37G A41U C42A, the self-cleavage was determined as 0.01. As to A4C A6C C15U G44U, the self-cleavage was 0.05. Next, G29C G40A C42A: 0.01; C13A A26G U43C: 0.03. Next, A6G A11U C18G: 0.02; C8A A39U G40U: 0.31; G5C G7C A14G G17U G35A: 0.05. For the variant G7C G27C C37G A39C, the self-cleavage stood at 0.02. As for A25U G30A G44U, the self-cleavage amounted to 0.23.

As to A26C U32G A39G U43C, the self-cleavage was found to be 0.08. With C10G C15A G17A G21U A26G G36U G40A C42A, the self-cleavage is 0. Next, G27C U32G C42A: 0.02; A6C C18A A25U C46A: 0.05.

In the case of G5A C10U A24C C31G C37G, the self-cleavage amounted to 0.04. On to U9C A11C A12C C18U G29C, for which the self-cleavage amounted to 0.

On to U32A C42G C46G, for which the self-cleavage stood at 0.03.

As to C10U G19C U20A C23U, the self-cleavage was found to be 0.12.

Take C15A G29A G33A G35C: the self-cleavage worked out at 0.03. Next, G5A A6C U9C G21U G40U: 0.08; G2U C10U C13A A14U G17U G22U: 0.02. Next, C18G G22C G36U: 0.07. Next, G1C A4U G29A A39U: 0.01; C13A G17C U20G C23U U28C G36A A41U: 0.07; A25G U34A G44U: 0.07. On to A26G U32A A41U, for which the self-cleavage came to 0.01. With G5A C23A A39U, the self-cleavage came to 0.04. C3U U9C A16G C42G: the self-cleavage was 0.01. Next, A4C G5U U9A C15U C42U: 0.69; G5C C13A C45G: 0.01. Consider G30U U32C U34G, for which the self-cleavage was 0.06. Next, G19A G21C G22C A41U U43A: 0.02; C3U C10G G17A G27C G35U: 0.04.

Consider C15G A16U G21A G33C G40A C42A, for which the self-cleavage is 0.01.

As for A6U U20A U34G G35U, the self-cleavage worked out at 0.28. Next, C3G C18A G22C C45A: 0.02; C13U A16U C18G G36A: 0.1. Next, A16U A25U C42U: 0.05. As for U9A G21U A24U C46U, the self-cleavage was determined as 0.07. Next, G5U C13G G17A: 0.02; A4G C13U A16C C45U: 0.62. Next, G1C A25G A26U: 0.05; A12G U28A U34C G35U A39C C42U: 0. For G1A C8U A12G C42G, the self-cleavage amounted to 0.59.

C10G G29C C31A: the self-cleavage was 0.1. Next, G1A C3G G36C A41U C42U G44U: 0.17; A16G G21C U34A: 0.01. For the variant G2U A4C C42A, the self-cleavage was determined as 0.01.

Consider C23A G30U G35A, for which the self-cleavage came out at 0.04. Next, A4U U28C G33C C46U: 0.06; G5C G7C C37A: 0.32.

Consider C15A G27U U28A C46G, for which the self-cleavage came to 0.03. C23U A25C G27A G40A A41U: the self-cleavage worked out at 0.04. Next, G7C U20G G40U: 0.02; A14C U34C G36A C37A: 0.02. As for U9A C15A A16G C31U G36C A41G C42A, the self-cleavage stood at 0. Regarding G1A G21U C31A C37U U38G, the self-cleavage came to 0.05. Regarding U9G A11U G44U, the self-cleavage turned out to be 0.03.

Consider A4C G7C G19A, for which the self-cleavage is 0.78.

For the variant C3A C23G A24C, the self-cleavage came to 0.16. Consider C3U C10U C23G G29U G36U, for which the self-cleavage is 0.03. Next, G2A A6G C10G A41C C42G: 0.02.

Take A6U G7C A12C G17A: the self-cleavage stood at 0.04. Consider A6U U20A A24C A26C G30A, for which the self-cleavage came to 0.14. Regarding C10G C13G G21C C23U, the self-cleavage was found to be 0.02. Next, C15A A16C A24C C37A: 0.02. Regarding C8A C15G U32C, the self-cleavage came out at 0.14. U20C G27A G36C A39U C45A: the self-cleavage came out at 0.03. In the case of G5A C8U U9C C10A A24U G35U U43G, the self-cleavage worked out at 0.02.

Turning to G2C A16G G29U, the self-cleavage worked out at 0.1.

G1A C15U C31U: the self-cleavage stood at 0.06. Next, A4C G7U A16C: 0.25. Next, C3U C10U U20A: 0.1; C18A G30A A39G G44A: 0.06; A16G A24C G30U: 0.19. Next, A4U C8G G22C G44U: 0.01. Consider C8G A11C G22U C37U, for which the self-cleavage amounted to 0. Next, G7C C23G G33A C42A: 0.03.

As for C8U C10A G22U, the self-cleavage amounted to 0.04.

Turning to G5C U20A G33A A39G, the self-cleavage came out at 0.03.

As to A11C G22U C37A G44C, the self-cleavage worked out at 0. Next, A6G C10A A14C G29A: 0; A4U G5A C42G: 0.03; A11U G27U G30A: 0.28. G7C G22U G27C U34G C46A: the self-cleavage was 0.07.

Regarding A6C G33U A39G, the self-cleavage turned out to be 0.06. As for A4U C10G G40A C45A, the self-cleavage came out at 0.01. For G2C U20A A24C G36U G44C, the self-cleavage is 0.02.

As for U9C C15A G17U, the self-cleavage came to 0.02. Consider A11C G22A G40U, for which the self-cleavage was determined as 0.01. A14U G19A G35C G36A C37A: the self-cleavage was found to be 0.07. Next, A4G G19U A26C C45A: 0.39; A12U C15A C18U: 0.06. Next, C3A A6U C15U: 0.45; C8A C23U G40A: 0.11. Next, A6U G35U C37A: 0.22. A6G A12U A39G C45U: the self-cleavage was 0. Regarding C37A A41C C46A, the self-cleavage worked out at 0.01. Regarding U20C U32C C46U, the self-cleavage amounted to 0.02. Take C8U C15G G30C: the self-cleavage was 0.15. Next, A4C G7C A24G: 1.54; G1U G33A U43C: 0; A6G G19A A25C A26U G29A C45U: 0.36. For A6C U9A U20C G40U C45U, the self-cleavage turned out to be 0.08. With G1U G29A G33U G35U, the self-cleavage was determined as 0. Next, U20C U38C A39G: 0.3; C8U U20C G35C: 0.05.

Consider A4C C10G A11G U20C C46A, for which the self-cleavage amounted to 0. Next, A4C G36U C37U: 0.05; C31A C37A G40U: 0.08. For the variant C3A C8A A16C A39U, the self-cleavage was 0.53.

On to G1U G21U G35A C42U, for which the self-cleavage was 0.02. Take G5U C15U G29A: the self-cleavage is 0.05. On to G5U A25C C45U, for which the self-cleavage amounted to 0.46. Next, C8U C23U U28G G35C: 0.61; A14C C18U G22C G27U G36A: 0.25; C13U C37U C46A: 0.07. In the case of C8A U34G G44A, the self-cleavage was 0.68. Next, A14G G19U C45U: 0.19; C3G G17U G22A G35A C46A: 0.53; A11C G21A G33U: 0.01. Next, C10U C15G A26G C37U: 0.01.

For the variant G40U G44C C46A, the self-cleavage was found to be 0.09. For the variant G2U A12U A16C A24G G29A G33A, the self-cleavage was 0.01. Turning to C10G A14U C31A, the self-cleavage came to 0. On to C3A A24G C46U, for which the self-cleavage amounted to 0.61. Next, G7A U20A G21U A24U G29A G40U A41U: 0.04; G1C G5U A25C G35C C45G: 0.02; G1U C18A U34C: 0.06. Next, G5A G19C G27A C45G: 0.03; U20G A24G G29A C37U: 0.02; U20C G21U G44C: 0.02. Regarding C8G C18G C23U C37A, the self-cleavage turned out to be 0.09. With U9C A11U U28A, the self-cleavage was 0.01. Next, G1A G30C G40A: 0.05; C8A A12U C42U: 0.03; A12G G36A G44U: 0.01. Next, C15G G29C C37A G40U: 0.15; G1U A24C U34G A41C C42U C45U: 0.03.

In the case of G2A C3A C15G G19U, the self-cleavage was determined as 0.11.

As for C8G A12U A14U U28G U34A, the self-cleavage is 0.06.

For the variant A12U U34C C37G C45G, the self-cleavage came out at 0.04.

A6C A25C G35A: the self-cleavage turned out to be 0.13.

With G7A A11G U28G C37A, the self-cleavage amounted to 0.01. Turning to G2C G27C G29C, the self-cleavage was 0.16. For U9A C23A A24U G27C C37U G40U, the self-cleavage worked out at 0.03. A4U C10A A14G: the self-cleavage stood at 0.4. Next, A6G C15U U32C G40A: 0.03.

In the case of C18U U28A C31U U34G, the self-cleavage was found to be 0.02. Consider A4C A6C C13U G30U A41U, for which the self-cleavage was found to be 0.05. For the variant G29U G30C A39G C45A, the self-cleavage was found to be 0.01.

Consider G33U G36U C45G, for which the self-cleavage turned out to be 0.02. On to G1C A6C C15A G21U C31U, for which the self-cleavage came out at 0.01.

Regarding C15A A24G A26U C31U U32G G36A, the self-cleavage stood at 0.25. Next, A24C C37U A39G: 0; C10U G21C A25U: 0.13; G7A C13A G30C A39G: 0. Turning to A4G C8A C10G G33C C37A U38G G40C, the self-cleavage was 0. Next, G1C U9C C18A U20A G21A A24C: 0.01; C8U C31U G36U U38G: 0.02; G17C C18G G44U C45A: 0. Next, A4C A6U C23A: 0.14; C8G A14G G29C: 0.01. Next, C3A A24U C45G: 0.19; G2C A11U G29A: 0.04.
